# In PubChem BioAssay AID686979 (National Center for Advancing Translational Sciences (NCATS), 2013):
# The campaign covered roughly 420,000 compounds. About 50,000 (12%) were called active. The shares of active, inactive and inconclusive entries below differ from those in the screen. Calls come from the whole dose curve; as a rule, active = well fitted inhibition curve with a large enough effect; inconclusive = small, poorly fitted or top-dose-only effect; inactive = flat fitted curve, though single readings scatter. Potencies of inconclusive entries are left out as doubtful fits.
# Assay: qHTS for Inhibitors of human tyrosyl-DNA phosphodiesterase 1 (TDP1): qHTS in cells in presence of CPT; note: nearly all actives have a fitted effect of over 55% in size
# Conditions: chicken DT40 Tdp1-/-;hTDP1 cells + 20 nM CPT, ATP luminescence, 48 h; activity change, negative = growth inhibition: at 46.2 µM (top of the series) unless noted
# How it was run: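 Cell growth measured by CellTiter-Glo luminescence after a minimum 48 h, 37 C compound exposure with 20 nM CPT in Tdp1-knockout DT40 cells stably expressing hTDP1, seeded 400/well; qHTS titration format.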
# % is set by controls: 0 for no effect and ±100 for the full control effect; potency is the fitted concentration of half-maximal effect; tags give direction and shape of the fitted curve.
SMILES,Potency,"activity change, negative = growth inhibition"
Cc1noc(/C=C/c2ccccc2F)c1S(=O)(=O)N1CCC(C(=O)N2CCOc3ccccc32)CC1,"inconclusive [inhibitor, single point]",
O=C(COC(=O)c1cn(-c2ccccc2)nc1-c1ccc(F)cc1)Nc1ncc(Cl)cc1Cl,"inconclusive [inhibitor, single point]",
COc1ccc(N(C(=O)C(C)C)S(=O)(=O)c2cccc3cccnc23)cc1,"inconclusive [inhibitor, full curve]",
C[C@@H](C(=O)N[C@@H](Cc1c[nH]c2ccccc12)C(=O)O)n1nnc2ccccc2c1=O,"inconclusive [inhibitor, single point]",
Cc1ccc(NC(=O)Cn2c(=O)oc3ccccc32)c(C)c1,,inactive: 0.212%
COc1cc2nnn(-c3ccncc3)c2cc1OC,,inactive: 1.19%
Cc1ccc2c(c1)[nH]c1c(=O)n(CCN3CCNCC3)cnc12,"inconclusive [inhibitor, full curve, poor fit]",
Cc1ccc(C(=O)Nc2ccc(Oc3ccc(C(=O)O)c(C(=O)O)c3)cc2)cc1C,active: 23.1 µM,
O=C(NCC1OCCc2ccccc21)c1cc(COc2c(F)cccc2F)on1 (stereo not given),,inactive: -8.71%
COc1ccccc1CCNC(=O)C(C)Sc1nc(-c2ccccc2)cc(C(F)(F)F)n1 (stereo not given),active: 16.4 µM,
CC(=O)NC(c1cccc([N+](=O)[O-])c1)c1c(OC(C)=O)ccc2ccccc12 (stereo not given),,inactive: -28.1%
COc1ccc(/C=N/OCC(=O)N=Nc2c(O)[nH]c3ccc(Br)cc23)cc1OC,active: 25.9 µM,
Cc1ccc(N(CC(=O)NC2CCCCC2)S(=O)(=O)c2c(C)noc2C)cc1,"inconclusive [inhibitor, partial curve, poor fit]",
O=C(COc1coc(CN2CCc3ccccc32)cc1=O)NCCc1ccccc1,"inconclusive [inhibitor, single point]",
CN(Cc1ccccc1)C(=O)c1ccc(NC(=O)Cc2ccc(NC(=O)C3CCN(C(=O)C4CCCC4)CC3)cc2)cc1,"inconclusive [inhibitor, single point]",
COc1ccc(-n2c(CNC(=O)c3ccccc3C(F)(F)F)nnc2SC)cc1,,inactive: 6.42% [at 9.04 µM]
Cc1ccc(-c2cc(-c3ccccc3)c(C#N)c(SCC(O)CS(=O)(=O)Cc3ccccc3)n2)cc1 (stereo not given),,inconclusive: -37.3% [inhibitor]
CC(Oc1cccnc1[N+](=O)[O-])C(=O)N1CCc2ccccc21 (stereo not given),,inactive: -15.1%
COc1ccc(C(=O)Nc2ccccc2C(=O)NCc2cccnc2)cc1OC,,inactive: 3.06%
O=C(CCc1c[nH]c2ccccc12)OCc1cccc([N+](=O)[O-])c1,,inactive: -8.55%
Cc1ccc(C(O)c2ncc(-c3ccc(F)cc3)[nH]2)c(C)c1 (stereo not given),"inconclusive [inhibitor, partial curve]",
CC1CCCCN1CCNC(=O)C1CCCN(S(=O)(=O)c2cccc3nsnc23)C1 (stereo not given),,inactive: 6.41%
COc1ccc(F)cc1S(=O)(=O)Nc1cccc(-c2ccc(N3CCC(C)CC3)nn2)c1,"inconclusive [inhibitor, single point]",

SMILES,Potency,"activity change, negative = growth inhibition"
O=C(COc1ccc(Br)cc1)NCCN1CCCC1,,inactive: -1.57%
Cc1nc2cc(NC(=O)c3ccc(S(=O)(=O)N(C)c4ccccc4)cc3)ccc2o1,"inconclusive [inhibitor, single point]",
CCCOc1ccc(CNC(=O)c2[nH]c3cc(OC)ccc3c2Sc2ccccc2)cc1,"inconclusive [inhibitor, single point]",
COc1ccccc1-c1sc2cc3c(cc2c1C#Cc1ccccn1)OCO3,"inconclusive [inhibitor, single point]",
CCC(=O)N1CCc2cc(S(=O)(=O)NC(C(=O)NCc3ccc(C)cc3)C(C)C)ccc21 (stereo not given),,inactive: 4.73%
CC1=NN(c2ccc(C(F)(F)F)cn2)C(=O)C1,active: 23.1 µM,
O=C(NC1CCCCC1)C(c1ccc2ncccc2c1)N(Cc1ccc(F)cc1)C(=O)c1cccs1 (stereo not given),"inconclusive [inhibitor, partial curve]",
O=C(COc1ccccc1F)Nc1cc(S(=O)(=O)Nc2cccc(Cl)c2)ccc1O,"inconclusive [inhibitor, single point]",
COc1ccc2[nH]c3c(c2c1)CCN1C(=O)C(CC(=O)NCCCn2ccnc2)C[C@H](C(=O)N2CCCCC2)[C@@]31CCc1ccccc1 (stereo not given in full),"inconclusive [inhibitor, single point]",
O=C(NN1CCOCC1)c1ccccc1Br,,inactive: -6.41%
CC(=O)NCCNc1nc2cc(-c3cnn(CCC(C)C)c3)sc2c(=O)n1C,"inconclusive [inhibitor, partial curve]",
COc1ccc(CC(=O)n2nc(-c3ccccc3)nc2NCc2ccco2)cc1,,inconclusive: -2.03% [inhibitor]
C=CCn1c(C2CC(=O)N(c3ccc(C)cc3)C2)nc2ccccc21 (stereo not given),"inconclusive [inhibitor, partial curve, poor fit]",
COCC(C)n1c(C)cc(C(=O)CN2C(=O)NC(Cc3c[nH]c4ccccc34)C2=O)c1C (stereo not given),"inconclusive [inhibitor, partial curve]",
Cc1ccc(Cl)c(OC(=O)c2nn(C(C)C)c(=O)c3ccccc23)c1,"inconclusive [inhibitor, partial curve]",
Cc1cc(Cl)ccc1OCc1nc(-c2ccc(O)cc2)n[nH]1,"inconclusive [inhibitor, single point]",
O=C(NCc1ccc(OC(F)(F)F)cc1)C1CC(c2cccc(F)c2)=NO1 (stereo not given),,inactive: 9.13%
CN(C)CCSc1nc(-c2ccccc2)nc2c1CCCC2,active: 11.6 µM,
CC(C)[C@H](NC(=O)c1ccccc1)C(=O)Nc1cccc(S(=O)(=O)N2CCOCC2)c1,,inactive: -21.2%
CCCCNC(=O)CCCCC(=O)N/N=C/c1cccc(Cl)c1,"inconclusive [inhibitor, single point]",
C=CCNCCOCCOc1ccc(Cl)cc1C(C)(C)C,active: 18.4 µM,
CC1OC1c1ccc(-c2ccc(C3OC3C)cc2)cc1 (stereo not given),,inactive: 4.32%
